# In all, about 320,000 compounds went through this assay and about 9,100 (2.8%) were called active. Inconclusive means that the source gave no clear call. Such entries were picked first, then a sample of the others. The call rests on the fitted dose curve; in most records, active means well fitted activation curve with a large enough effect; inconclusive means small, poorly fitted or top-dose-only effect; inactive means no such curve, though single readings can be large or run the other way. No potency is given beside an inconclusive call; the fits are too rough.
# Experiment: qHTS Assay for Rab9 Promoter Activators; further: nearly all actives have a fitted effect of over 60% in size; on activation, negative = inhibition: % of control where 0% means no effect
# Conditions: Huh7 Rab9 promoter-luciferase reporter, luminescence, 24 h; series mostly up to 9.22 µM; activation, negative = inhibition: at the top concentration
# Procedure, shortened: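 Luciferase signal after 10 min detection reagent at ambient indicates Rab9 promoter upregulation; stably transfected Huh7 cells were treated 24 h with compound in DMSO at 37 °C, 5% CO2.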
# Potency means the concentration at half of the fitted maximal effect; tags describe the fitted curve by direction and shape.
Structure (SMILES),Potency,"activation, negative = inhibition"
Cc1ccc(NC(=O)CCCc2ccccc2)c([N+](=O)[O-])c1,"inconclusive [activator, partial curve]",
CCn1c(C(=O)NC2CCC(C)CC2)cc2sccc21 (configuration not stated),"inconclusive [activator, partial curve]",
CC(C)c1c(C(=O)N/N=C/c2ccsc2)nnn1-c1nonc1N,,inactive: -0.671%
Cc1nn(C)cc1C(=O)NNC(=S)Nc1ccccc1,"inconclusive [activator, single point]",
Clc1ccc(/C=N/Nc2ncnc3nc[nH]c23)cc1,"inconclusive [activator, partial curve]",
Cc1ccc(C(=O)COC(=O)c2cccc(N3C(=O)c4c(C)nc5ccccc5c4C3=O)c2)cc1C,"inconclusive [activator, single point]",
CC(=O)Cn1ncc(N(C)Cc2ccccc2)c(Cl)c1=O,"inconclusive [activator, partial curve]",
CCCOc1cccc(/C=N/NC(=O)c2csc(C)c2C)c1,,inactive: 10.3%
CSc1ccccc1NC(=O)c1cc(C2CC2)on1,"inconclusive [activator, single point]",
O=C1CCC(C(=O)Nc2cc(C(F)(F)F)ccc2-n2cncn2)=NN1,,inactive: 4.12%
CCc1ccc(NC(=S)N2CCCCCCC2)cc1,"inconclusive [activator, partial curve]",
Cc1noc(C)c1C(=O)N1CCc2ccccc21,"inconclusive [activator, single point]",
O=c1c2c3c(sc2nc2n1CCCCC2)CCC3,,inactive: 27.1%
CCN(CC)S(=O)(=O)c1ccc(/C=C/C(=O)NC2CCCCC2)cc1,,inactive: 2.61%
Cc1cc(/C=N/NC(=O)c2cccs2)c(C)n1-c1cnccn1,active: 3.55 µM,
O=C(Cc1ccc([N+](=O)[O-])cc1)NNC(=O)c1ccc2c(c1)OCO2,,inactive: 2.7%
COc1ccc2nc(NC3=NCCC3)sc2c1,active: 3.16 µM,
O=C(Nc1nnc(-c2ccc(F)cc2)s1)c1ccco1,active: 3.16 µM,
Cc1ccc(C2C3=C(CC(C)(C)CC3=O)N(CCN3CCOCC3)C3=C2C(=O)CC(C)(C)C3)cc1,active: 3.55 µM,
Cc1ccc(Nc2cccccc2=O)cc1,active: 3.55 µM,
O=C(Nc1nc2c(s1)CCCC2)c1ccc(Br)s1,active: 0.501 µM,
CN(C)/C=C/c1onc(-c2ccccc2Cl)c1C#N,"inconclusive [activator, partial curve]",
O=C(Nn1c(C2CCC2)nc2ccccc2c1=O)c1cccs1,,inactive: -5.96%
S=c1sc2c(N3CCOCC3)ncnc2n1-c1ccccc1,"inconclusive [activator, partial curve, poor fit]",
O=C(O)C1C2CCC(O2)C1C(=O)Nc1ccc(O)cc1 (configuration not stated),,inactive: 1.65%
Cc1cc(C(=O)CSc2nnc(Cc3ccccc3)o2)c(C)n1Cc1ccc2c(c1)OCO2,,inactive: -5.84%

Structure (SMILES),Potency,"activation, negative = inhibition"
CN(C)c1ccc(C2N(C(=O)N3CCOCC3)CCN2S(=O)(=O)c2ccccc2)cc1 (configuration not stated),"inconclusive [activator, single point]",
CCOC(=O)c1ccc(Nc2ncnc3nc[nH]c23)cc1,"inconclusive [activator, partial curve]",
CC(C)=CCN1CCN(Cc2cn[nH]c2C2CCCCC2)CC1CCO (configuration not stated),,inactive: -4.5%
COC(=O)c1cc(S(=O)(=O)N2c3ccccc3CC2C)cn1C (configuration not stated),,inactive: -2.38%
CCOC(=O)N1CCN(C(=O)CCS(=O)(=O)c2ccc3c(c2)CC(C)N3C(=O)CC)CC1 (configuration not stated),,inactive: -1.55%
CC(NC(=O)c1c(O)c2ccccc2n(C)c1=O)c1ccccc1 (configuration not stated),,inactive: 14.2%
COc1ccc(C(=O)Nc2ccc(N3CCN(C)CC3)cc2)cc1OC,"inconclusive [activator, single point]",
COc1ccc(CCNC(=O)c2ccc([N+](=O)[O-])cc2)cc1,"inconclusive [activator, single point]",
CC(=O)Nc1ccccc1C(=O)C(=O)Nc1ccc(Cl)cc1,active: 2.51 µM,
Cc1ccc(NC(=O)C(=O)NCCCN2CCCC2=O)c(C)c1,"inconclusive [activator, partial curve]",
CC(=O)c1cnc2cc(-c3cccc(Br)c3)nn2c1C,active: 2 µM,
CC1=C(C(=O)NC(C)C)C2(CCC(C)CC2)OC1=O (configuration not stated),,inactive: 0.591%
Cc1ccc(-c2csc(N/N=C/c3ccco3)n2)cc1,"inconclusive [activator, single point]",
COc1ccc(C)cc1-n1nnnc1SCc1csc(C)n1,"inconclusive [activator, single point]",
CCCc1cc(C(=O)Nc2ccc(CC)cc2)no1,active: 1.58 µM,
CNC(=O)c1c(NC(=O)c2cccc(C)c2)sc2c1CCC2,"inconclusive [activator, partial curve]",
COc1ccccc1C(C(=O)NC1CCCC1)N(C(=O)c1csnn1)C1CC1 (configuration not stated),,inactive: -3%
CC(C)c1ccc(NC(=S)NN2CCOCC2)cc1,"inconclusive [activator, single point]",
Cc1ccc(NC(=O)C2C3C=CC4(O3)C2C(=O)N(CCCN2CCCCC2)C4C(=O)NC2CCCCC2)cc1C (configuration not stated),,inactive: -15%
O=S(=O)(NC1C2CC3CC(C2)CC1C3)c1ccc(F)cc1 (configuration not stated),,inactive: -1.52%
CCN(CC)C(=O)CSc1ncnc2c(-c3ccc(OC)cc3)nsc12,"inconclusive [activator, single point]",
CN1CCN(C(=O)C23CC4CC(C2)CC(c2ccccc2)(C4)C3)CC1,,inactive: 11%
CC(/C=N/NC(=O)c1cccnc1)=C\c1ccco1,"inconclusive [activator, single point]",
Cc1cc(NC(=O)c2cccc(Oc3ccccc3)c2)n[nH]1,active: 0.891 µM,
O=c1c(C=NCCN2CCNCC2)c(-c2ccccc2)[nH]n1-c1ccc([N+](=O)[O-])cc1,"inconclusive [activator, partial curve]",
Cc1ccsc1C(=O)NNC(=S)NC1CCCCC1,"inconclusive [activator, partial curve]",
